From the supplement of paper PMC6451100
Some of the results follow. These are enrichments in a pooled selection; single values are uncertain.

molecular target: T1, Drosophila AGO2 (FLAG-tagged, S2-R+ lysate) (UniProt Q9VUQ5); experiment: AGO2 loading enrichment factor (IP read count / input read count, not library-size normalised) (ratio); higher = more efficient loading into AGO2; conditions: randomized region: 5' 5N of miR-317 loop
T1 sequence: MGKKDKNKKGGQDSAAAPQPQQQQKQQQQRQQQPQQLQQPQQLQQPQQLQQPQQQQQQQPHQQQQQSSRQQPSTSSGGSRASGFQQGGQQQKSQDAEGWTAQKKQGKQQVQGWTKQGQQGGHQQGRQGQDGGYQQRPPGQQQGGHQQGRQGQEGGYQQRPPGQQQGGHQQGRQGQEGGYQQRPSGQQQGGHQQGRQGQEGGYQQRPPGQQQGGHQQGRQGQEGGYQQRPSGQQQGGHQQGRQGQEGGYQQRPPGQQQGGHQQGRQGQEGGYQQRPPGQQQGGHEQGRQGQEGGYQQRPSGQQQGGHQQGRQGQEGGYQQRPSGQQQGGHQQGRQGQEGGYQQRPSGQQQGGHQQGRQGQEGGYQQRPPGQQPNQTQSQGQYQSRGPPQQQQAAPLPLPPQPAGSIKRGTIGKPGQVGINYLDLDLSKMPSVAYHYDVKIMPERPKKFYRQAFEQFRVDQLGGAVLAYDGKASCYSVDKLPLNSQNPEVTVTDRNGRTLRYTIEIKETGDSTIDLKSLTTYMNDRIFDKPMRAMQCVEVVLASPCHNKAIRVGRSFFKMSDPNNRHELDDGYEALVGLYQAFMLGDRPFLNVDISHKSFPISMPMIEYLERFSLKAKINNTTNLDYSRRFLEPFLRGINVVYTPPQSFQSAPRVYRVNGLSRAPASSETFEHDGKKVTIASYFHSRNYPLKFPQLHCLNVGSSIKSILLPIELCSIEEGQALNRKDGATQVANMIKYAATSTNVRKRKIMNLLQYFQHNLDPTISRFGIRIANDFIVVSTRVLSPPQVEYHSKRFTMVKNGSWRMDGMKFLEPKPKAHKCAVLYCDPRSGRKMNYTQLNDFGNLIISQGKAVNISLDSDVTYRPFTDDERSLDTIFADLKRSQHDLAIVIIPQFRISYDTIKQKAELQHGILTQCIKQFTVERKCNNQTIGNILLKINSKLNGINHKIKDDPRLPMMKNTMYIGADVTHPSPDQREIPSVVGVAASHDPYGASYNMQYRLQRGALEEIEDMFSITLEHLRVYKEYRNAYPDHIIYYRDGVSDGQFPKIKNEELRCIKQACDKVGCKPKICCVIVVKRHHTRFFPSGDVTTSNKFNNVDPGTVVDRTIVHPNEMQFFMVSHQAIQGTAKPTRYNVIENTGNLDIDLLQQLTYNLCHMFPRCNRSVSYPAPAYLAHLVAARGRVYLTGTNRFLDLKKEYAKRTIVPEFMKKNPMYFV
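Further: Per-sequence enrichment computed with FASTAptamer, counting only reads that carry the expected constant 3′ region.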

| Sequence | AGO2 loading enrichment factor |
| --- | --- |
| ACGATTGAAATGCAAGCAAG | 0.354 |
| GTACGTGAAATGCAAGCAAG | 0.359 |
| ACTGGTGAAATGCAAGCAAG | 0.411 |
| GAATCTGAAATGCAAGCAAG | 0.435 |
| TCGGCTGAAATGCAAGCAAG | 0.141 |
| GCTCTTGAAATGCAAGCAAG | 0.222 |
| ATTATTGAAATGCAAGCAAG | 0.424 |
| CACGTTGAAATGCAAGCAAG | 0.313 |
| TGACCTGAAATGCAAGCAAG | 0.315 |
| TCTTTTGAAATGCAAGCAAG | 0.436 |
| GTCACTGAAATGCAAGCAAG | 0.422 |
| TCTAATGAAATGCAAGCAAG | 0.53 |
| ACCCATGAAATGCAAGCAAG | 0.737 |
| CTGGTTGAAATGCAAGCAAG | 0.513 |
| GTCAGTGAAATGCAAGCAAG | 0.437 |
| AGTCGTGAAATGCAAGCAAG | 0.656 |
| CCGCGTGAAATGCAAGCAAG | 0.288 |
| ACAGGTGAAATGCAAGCAAG | 0.626 |
| TCGATTGAAATGCAAGCAAG | 0.399 |
| TTGTCTGAAATGCAAGCAAG | 0.212 |
| ATCAATGAAATGCAAGCAAG | 0.525 |
| CCCGGTGAAATGCAAGCAAG | 0.772 |
| GGGGATGAAATGCAAGCAAG | 8.14 |

| Sequence | AGO2 loading enrichment factor |
| --- | --- |
| AAAAATGAAATGCAAGCAAG | 0.437 |
| TGTCTTGAAATGCAAGCAAG | 0.0361 |
| TGGTCTGAAATGCAAGCAAG | 1.11 |
| TTACCTGAAATGCAAGCAAG | 0.416 |
| CAGACTGAAATGCAAGCAAG | 0.362 |
| TCCCCTGAAATGCAAGCAAG | 0.156 |
| TTGAATGAAATGCAAGCAAG | 0.515 |
| ATCACTGAAATGCAAGCAAG | 0.403 |
| TGGGGTGAAATGCAAGCAAG | 8.14 |
| ATATTTGAAATGCAAGCAAG | 0.553 |
| AGACCTGAAATGCAAGCAAG | 0.395 |
| CCAGGTGAAATGCAAGCAAG | 0.603 |
| GGAAATGAAATGCAAGCAAG | 0.655 |
| GAAAGTGAAATGCAAGCAAG | 0.411 |
| GATGTTGAAATGCAAGCAAG | 0.315 |
| CCGAGTGAAATGCAAGCAAG | 0.444 |
| TAGGGTGAAATGCAAGCAAG | 1.97 |
| CATGCTGAAATGCAAGCAAG | 0.0841 |
| ACCTATGAAATGCAAGCAAG | 0.359 |
| ACATATGAAATGCAAGCAAG | 0.387 |
| ATAGCTGAAATGCAAGCAAG | 0.17 |
| ACGTGTGAAATGCAAGCAAG | 0.342 |
| ACGACTGAAATGCAAGCAAG | 0.428 |

| Sequence | AGO2 loading enrichment factor |
| --- | --- |
| ATCTTTGAAATGCAAGCAAG | 0.359 |
| TTGGTTGAAATGCAAGCAAG | 0.346 |
| GACGCTGAAATGCAAGCAAG | 0.147 |
| CATCCTGAAATGCAAGCAAG | 0.257 |
| CGGGATGAAATGCAAGCAAG | 2.51 |
| GTATATGAAATGCAAGCAAG | 0.382 |
| CAGGTTGAAATGCAAGCAAG | 0.306 |
| CCGGATGAAATGCAAGCAAG | 0.993 |
| GGAAGTGAAATGCAAGCAAG | 2.16 |
| GCGTCTGAAATGCAAGCAAG | 0.319 |
| CTATATGAAATGCAAGCAAG | 0.442 |
| CCCGTTGAAATGCAAGCAAG | 0.256 |
| GTTGGTGAAATGCAAGCAAG | 0.857 |
| TGCATTGAAATGCAAGCAAG | 0.0972 |
| GATATTGAAATGCAAGCAAG | 0.378 |
| GCTTCTGAAATGCAAGCAAG | 0.0112 |
| ATTAATGAAATGCAAGCAAG | 0.479 |
| TAGTATGAAATGCAAGCAAG | 0.352 |
| AAGACTGAAATGCAAGCAAG | 0.346 |
| TCGCATGAAATGCAAGCAAG | 0.19 |
| CCTGGTGAAATGCAAGCAAG | 0.394 |
| GAACCTGAAATGCAAGCAAG | 0.479 |
| TCGCCTGAAATGCAAGCAAG | 0.399 |

| Sequence | AGO2 loading enrichment factor |
| --- | --- |
| GCGCATGAAATGCAAGCAAG | 0.126 |
| GCTAATGAAATGCAAGCAAG | 0.182 |
| GCTTATGAAATGCAAGCAAG | 0.0182 |
| CTCTTTGAAATGCAAGCAAG | 0.523 |
| GTGCTTGAAATGCAAGCAAG | 0.877 |
| GCGAATGAAATGCAAGCAAG | 0.325 |
| TACTATGAAATGCAAGCAAG | 0.362 |
| CGCGTTGAAATGCAAGCAAG | 0.361 |
| ACCCTTGAAATGCAAGCAAG | 0.143 |
| CAAATTGAAATGCAAGCAAG | 0.347 |
| GGAGCTGAAATGCAAGCAAG | 0.347 |
| TCAGATGAAATGCAAGCAAG | 0.483 |
| AGCGCTGAAATGCAAGCAAG | 0.114 |
| ATAATTGAAATGCAAGCAAG | 0.399 |
| TACATTGAAATGCAAGCAAG | 0.379 |
| GCTCCTGAAATGCAAGCAAG | 0.217 |
| CCGTCTGAAATGCAAGCAAG | 0.369 |
| AGTAATGAAATGCAAGCAAG | 0.401 |
| AGCAGTGAAATGCAAGCAAG | 0.146 |
| GAGCTTGAAATGCAAGCAAG | 0.158 |
| TCGAGTGAAATGCAAGCAAG | 0.436 |
